# The campaign covered roughly 110,000 compounds. About 230 (0.21%) showed an effect of 50% or more. This is one part of the list.
# Molecular target: DPAP1 (Plasmodium falciparum, UniProt Q8IIJ9)
# Assay: primary screen, percent inhibition; read by cleavage of a fluorogenic dipeptide substrate; higher = more effect of the substance
# Set-up: species or system P. falciparum D10 trophozoite lysates; single well
# 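Further: 30 min substrate incubation versus DMSO and 10 µM JCP410 controls.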
# Sequence of DPAP1 (Q8IIJ9 whole entry, looked up): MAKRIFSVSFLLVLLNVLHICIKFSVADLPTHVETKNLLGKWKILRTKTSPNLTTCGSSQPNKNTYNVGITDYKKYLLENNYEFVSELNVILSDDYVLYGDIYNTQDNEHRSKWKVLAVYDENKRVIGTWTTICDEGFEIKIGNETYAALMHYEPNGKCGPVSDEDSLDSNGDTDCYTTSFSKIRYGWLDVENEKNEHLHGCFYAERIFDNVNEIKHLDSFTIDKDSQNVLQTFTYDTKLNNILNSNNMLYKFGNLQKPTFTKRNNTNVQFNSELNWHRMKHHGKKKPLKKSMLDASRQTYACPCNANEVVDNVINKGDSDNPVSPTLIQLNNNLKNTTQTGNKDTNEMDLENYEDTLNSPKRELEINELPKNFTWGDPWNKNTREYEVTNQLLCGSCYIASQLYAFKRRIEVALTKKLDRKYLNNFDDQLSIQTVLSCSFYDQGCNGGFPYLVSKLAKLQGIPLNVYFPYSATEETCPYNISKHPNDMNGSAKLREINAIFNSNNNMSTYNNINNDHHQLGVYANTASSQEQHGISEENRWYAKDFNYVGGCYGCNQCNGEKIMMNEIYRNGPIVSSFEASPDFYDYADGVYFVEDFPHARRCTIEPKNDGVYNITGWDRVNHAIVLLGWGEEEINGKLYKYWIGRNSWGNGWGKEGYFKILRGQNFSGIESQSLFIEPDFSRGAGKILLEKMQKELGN
row,Compound,% Inhibition @ 10 uM
1,CCCCN1C(=O)c2[nH]nc(-c3ccccc3O)c2C1c1ccc(OC)cc1 (stereo not drawn),8.13%
2,Cc1ccccc1S(=O)(=O)Cc1ccc(C(=O)NC2CCCCCC2)o1,2.14%
3,CCCC(=O)/N=C(\N)Nc1nc(C)c2cc(C)c(C)cc2n1,-3.39%
4,Cc1nn(CC(=O)N2CCOCC2)c(=O)c2c1sc1ccccc12,-2.45%
5,COc1cc(OC)cc(C(=O)NC(C)(C)CO)c1,-1.02%
6,O=C(N/C(C(=O)N1CCCCC1)=C(\Sc1ncccn1)c1ccccc1)c1ccccc1,-4.4%
7,CC1CCCCN1C(=O)c1ccccc1N (stereo not drawn),1.62%
8,CC1=CC(C)C(C2OCC3(CO2)C(C)C=C(C)CC3C)C(C)C1 (stereo not drawn),9.4%
9,C=CCn1c(SCC(N)=O)nnc1-c1ccc(OC)c(OC)c1,-1.3%
10,CCOCCCn1c(=N)c(C(=O)NCCc2ccccc2)cc2c(=O)n3ccccc3nc21,1.97%
11,COc1cc(CN2CCN(c3ccccc3)CC2)ccc1O,-2.7%
12,COc1ccc(N(CC(=O)NCc2ccccc2)S(C)(=O)=O)c(OC)c1,3.72%
13,Cc1cc2nc(COc3ccc(C(C)C)cc3)cc(=O)n2o1,-5.76%
14,O/N=C1\c2ccccc2/C(=N/O)C1c1cccc2ccccc12 (stereo not drawn),5.54%
15,COc1cccc(Cn2nnc(C(=O)O)c2C(=O)O)c1,4.23%
16,Cc1ccc(C2C(C#N)=C(N)Oc3[nH]nc(C(C)(C)C)c32)s1 (stereo not drawn),-2.2%
17,CCS(=O)(=O)N1CCC2(CC1)OC(=O)C(C)=C2C(=O)NCCCN1CCCC1=O,0.706%
18,COCCNC(=O)CSc1nnc(-c2ccc(C)cc2)c(-c2ccc(C)cc2)n1,-2.14%
19,COc1cc(CN2C[C@@H]3C[C@H](C2)c2cccc(=O)n2C3)cc(OC)c1OC,-1.85%
20,C=CCNC(=O)C1CC(c2cnn(CC)c2C)=NO1 (stereo not drawn),-6.68%
21,COc1ccc(CCNC(=O)CN2CCN(Cc3ccc(F)cc3Cl)S2(=O)=O)cc1OC,-5.13%
22,CCOC(=O)c1c(NC(=O)CCC(=O)O)sc2c1CCCC2=O,2.94%
23,CCCN(CCO)CC1CC=CCC1 (stereo not drawn),1.08%
24,CC(C)C(=O)Nc1nc2nc(-c3ccccc3)cc(O)n2n1,9.57%
25,CCOC(=O)C1=C(CC)OC(N)=C(C#N)C1c1ccc(SC)cc1 (stereo not drawn),4.12%
26,CCc1nnc(NC(=O)c2ccc(S(=O)(=O)N(C)C3CCCCC3)cc2)o1,-7.43%

row,Compound,% Inhibition @ 10 uM
1,O=C(NC12CC3CC(CC(C3)C1)C2)c1cncc(O)c1,-1.15%
2,CN(C)CCNC(=O)CCn1c(=O)c2cccn2c2cccnc21,4.14%
3,Cc1[nH]c2ccccc2c1CCNC(=O)NC(=O)c1ccc(C(F)(F)F)cc1,1.93%
4,O=C1N/C(=C/c2cc3c(cc2Cl)OCO3)C(=O)N1c1ccc(Cl)cc1,0.823%
5,CN(CCc1ccccn1)Cc1cccc(C(F)(F)F)c1,-0.351%
6,COc1ccc(/C=C/C2=NC(=C\c3cccc(OC)c3)/C(=O)O2)cc1,1.28%
7,O=C(CNS(=O)(=O)c1ccc(Br)cc1)Nc1cccc(F)c1,14.3%
8,COCCNc1cnn(C23CC4CC(CC(C4)C2C(=O)O)C3)c(=O)c1Cl (stereo not drawn),12.7%
9,CC1CC(=O)Nc2cc([N+](=O)[O-])ccc2N1 (stereo not drawn),2.23%
10,O=C(NCc1cccs1)c1cnn2c1NC(c1cccs1)CC2C(F)(F)F (stereo not drawn),-1.37%
11,O=C(NC1CCN(Cc2ccccc2)CC1)c1ccc(Br)cc1,4.55%
12,O=C1c2ccccc2C(O)(Cc2ccccc2)N1CC(O)c1ccccc1 (stereo not drawn),-3.71%
13,Nc1cc(O)nc(SCC(=O)c2ccc(O)c(O)c2)n1,-11.3%
14,Cc1ccc2oc(C(=O)Nc3nnc(C(C)C)s3)cc(=O)c2c1,18.2%
15,CC1CCN(C(=O)CN(C)S(=O)(=O)c2ccc3[nH]c4c(c3c2)CCCC4)CC1,0.141%
16,CC1(C)CC(n2nc(O)c3c2NC(=O)CSC3c2ccc3c(c2)OCO3)CCO1 (stereo not drawn),6.01%
17,COCCCN1C(=O)S/C(=C/c2ccc(OC)c(O)c2)C1=O,0.709%
18,CC1(C)CC(=O)C2=C(C1)OC(N)=C(C#N)C2C1CC=CCC1 (stereo not drawn),2.22%
19,COCCN1Cc2cccc(C(=O)NC(C)c3cccs3)c2C1=O (stereo not drawn),-2.29%
20,CSCC[C@H](NC(=O)OCc1ccccc1)C(=O)O,1.97%
21,O=C(NC1CCCCC1)C1CCCN1S(=O)(=O)c1cccc2nsnc12 (stereo not drawn),1.26%
22,O=c1c2c3c(sc2nnn1CCCOc1ccccc1)CCCC3,2.41%
23,Cc1cccc(OCC(=O)NCc2ccccc2)c1,-2.03%
24,CCCSc1nsc(SCCC)c1C(=O)O,0.51%
25,COc1cc(CN2CCC(C)CC2)cc(OC)c1,-4.75%
